For 97 compounds, inhibition results are on record in PubChem BioAssay AID485344 (National Center for Advancing Translational Sciences (NCATS), 2010).

The structures appear in SMILES notation. Hit rate of the full screen: of about 340,000 compounds, about 6,900 (2%) were called active. Cut-off read from the data, not from the text of the source: active = inhibition above about 30%; inactive = below that, where a call was filed. Only a part is listed here, and it is no random draw. The source gives no active or inactive call for entries shown without one.

Chain of UniProt P14416 (P14416 whole entry, looked up): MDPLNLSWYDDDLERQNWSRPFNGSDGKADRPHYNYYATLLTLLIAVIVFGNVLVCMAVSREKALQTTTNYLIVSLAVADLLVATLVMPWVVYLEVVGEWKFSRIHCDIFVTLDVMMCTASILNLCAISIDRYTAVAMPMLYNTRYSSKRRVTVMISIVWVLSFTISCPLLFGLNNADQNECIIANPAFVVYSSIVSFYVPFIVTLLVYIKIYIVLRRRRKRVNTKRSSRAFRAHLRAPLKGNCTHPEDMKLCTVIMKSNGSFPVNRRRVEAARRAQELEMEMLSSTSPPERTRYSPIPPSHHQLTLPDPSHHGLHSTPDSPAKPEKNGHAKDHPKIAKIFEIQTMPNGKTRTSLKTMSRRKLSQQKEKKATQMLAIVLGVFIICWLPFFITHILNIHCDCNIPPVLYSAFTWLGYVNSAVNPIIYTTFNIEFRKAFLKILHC

The test has as its target D(2) dopamine receptor (Homo sapiens) (UniProt P14416). Put plainly: HTS Assay for Allosteric Antagonists of the Human D2 Dopamine Receptor: Primary Screen for Antagonists. Note: 0% is about no effect. The following applies: HEK293 TREx D2 cells, calcium flux, dopamine EC80; at 10 µM; stronger effect = higher value. The method, boiled down:
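HEK293 T-REx D2 cells, tet-induced, calcium dye no-wash. Cpd pintool add, 180 s kinetic, then EC80 DA, 180 s kinetic. Ca flux read.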
A general note: A change in cytosolic calcium serves as a functional read-out for many receptors and channels.
Take `CCCN(CC(=O)Nc1ccccc1C)C(=O)c1ccc(S(=O)(=O)N2CCCC2)cc1`: the inhibition was active: 30.4%.

For `COCCn1c(N)c(C#N)c2nc3ccccc3nc21`, the inhibition was active: 36%.

`Cc1cc(OCc2nn[nH]n2)c2c(-c3ccccc3)cc(=O)oc2c1`: the inhibition is active: 51.1%.

Regarding `O=C(NC1CCCC1)c1ccc2c(=O)n(Cc3ccccc3)c(SCc3ccccc3F)nc2c1`, the inhibition was -11.2%.

Take `COc1ccc(C)cc1NC(=O)CCN1CCN(c2ccccc2)CC1`: the inhibition was active: 81.7%.

Take `CN1CCN(CCC=C2c3ccccc3Sc3ccc(S(=O)(=O)N(C)C)cc32)CC1`: the inhibition is active: 77.4%.

In the case of `O=c1nc2s/c(=C\c3ccco3)c(=O)n2nc1Cc1ccc(F)cc1`, the inhibition is active: 35.3%.

With `COc1ccccc1CNC(=O)C1CCN(c2nc3ccc(C)cc3[nH]2)CC1`, the inhibition turned out to be 0.402%.

Turning to `Clc1ccccc1OCCSc1nnc(-c2cccs2)o1`, the inhibition is -18.4%.

`O=C(CSc1nc(=O)n(Cc2ccco2)c2c1CCC2)NCc1ccccc1`: the inhibition is -17.3%.

Consider `CCc1ccc2oc(-c3ccc(C)c(NC(=O)/C=C/c4ccco4)c3)nc2c1`, for which the inhibition came to 4.93%.

As to `Cc1sc2ncn(CC(=O)N3CCN(c4ccccc4F)CC3)c(=O)c2c1S(=O)(=O)N1CCC(C)CC1`, the inhibition was 16.4%.

Regarding `Cc1ccc2nc(/C(C#N)=C/c3ccccc3F)[nH]c2c1`, the inhibition was -10.4%.

For the compound `CCS(=O)(=O)N1CCc2cc(C(=O)NCc3ccccc3OC)ccc21`, the inhibition is -14.3%.

On to `CCOc1ccc(CCNC(=O)C2CCCN(S(=O)(=O)N(C)c3ccc(F)cc3)C2)cc1` (configuration not stated), for which the inhibition was -9.45%.

As for `COc1cccc(NC(=O)C2CCC(CNS(=O)(=O)c3ccc4c(c3)CCCC(=O)N4)CC2)c1` (configuration not stated), the inhibition is 3.58%.

For the compound `CCn1cc(CNC(=O)c2cc(-c3ccc(C)cc3)nc3ccc(Br)cc23)c(C)n1`, the inhibition is -17.2%.

On to `O=C(NCc1ccccc1)C(=O)Nc1c2c(nn1-c1ccc(F)cc1)CSC2`, for which the inhibition worked out at 1.07%.

In the case of `COc1ccc(NC(=O)CN2C(=O)COc3ccc(S(=O)(=O)N4CCOCC4)cc32)cc1`, the inhibition was found to be 10.5%.

Take `COc1cccc(NC(=O)C2CCN(c3ccc(Sc4ccc(C)cc4)nn3)CC2)c1`: the inhibition turned out to be 2.13%.

On to `Cc1ccc(CNC(=O)C(C)n2c(=O)cc(C(F)(F)F)c3c(C)nn(C)c32)cc1` (configuration not stated), for which the inhibition was -8.13%.

Regarding `CCn1nc(C)c(CCN(C)C(=O)Nc2cccc(Cl)c2C)c1C`, the inhibition is 9.72%.

On to `Cc1cccc(C(=O)N2CCc3cc(CNC(=O)c4cc5ccccc5[nH]4)ccc32)c1`, for which the inhibition came to 7.37%.

Regarding `Cc1ccc(S(=O)(=O)C(CNC(=O)c2c(F)cccc2F)c2ccco2)cc1` (configuration not stated), the inhibition amounted to 2.22%.

For the compound `Cc1cc(C)c(S(=O)(=O)NCCS(=O)(=O)N2CCN(c3ccccc3)CC2)c(C)c1`, the inhibition is -2.8%.

For the compound `O=S(=O)(c1ccccc1)c1nc(-c2ccccc2Cl)oc1N1CCCCCC1`, the inhibition amounted to 2.53%.

For the compound `COc1ccc(CCNC(=O)c2ccc3c(c2)sc2nc(-c4ccccc4)cn23)cc1OC`, the inhibition came out at 19.5%.

For `COc1cccc(C(=O)NCCc2csc3nc(-c4ccccc4F)nn23)c1OC`, the inhibition was -10%.

Regarding `CCOC(=O)c1cc(-c2ccc(OC)cc2)n(CCC(=O)NCCc2ccccc2)c1C`, the inhibition stood at 18%.

As for `Cc1ccccc1N(C)S(=O)(=O)c1nnc(NC(=O)c2ccco2)s1`, the inhibition was -7.99%.

Turning to `Cc1cc(OCC(=O)NCCc2nc3ccccc3[nH]2)cc(C)c1Cl`, the inhibition was -6.54%.

In the case of `Cc1ccc(CNC(=O)Cn2c(SCC(=O)Nc3ccc(F)cc3)nc3ccccc32)cc1`, the inhibition came to 9.07%.

Consider `CCOc1cc(/C=C2\CCCc3c2nc2ccccc2c3C(=O)O)ccc1OC`, for which the inhibition is active: 38.1%.

With `COc1cc(Cl)c(C)cc1NC(=O)COC(=O)C1=COCCO1`, the inhibition is active: 31.6%.

Regarding `CCOC(=O)c1cccc(NC(=O)c2ncoc2-c2ccco2)c1`, the inhibition is -5.98%.

Take `COc1cccc(Nc2nc3cc(C)ccc3nc2NS(=O)(=O)c2ccc(Cl)cc2)c1`: the inhibition was -24.2%.

On to `Cc1nc2ccccn2c(=O)c1NC(=O)c1cccc(F)c1`, for which the inhibition came to 4.02%.

In the case of `COc1ccc(NC(=O)c2cc3cc(C)ccc3n2C)c(OC)c1`, the inhibition was active: 34.4%.

For the compound `COc1ccc(NC(=O)/C=C\C(=O)N(c2ccc(C(C)C)cc2)C(C(=O)NCc2ccco2)c2ccc(C)cc2)cc1` (configuration not stated), the inhibition was -19.1%.

Take `CCOc1ccc(C2C(=O)N(C3CCCCCC3)CC(=O)N2Cc2ccccc2)cc1OC` (configuration not stated): the inhibition was -0.735%.

On to `Cc1cc(C)cc(OCCSc2nc3ccc(NC(=O)c4ccc5c(c4)OCO5)cc3s2)c1`, for which the inhibition was 1.04%.

With `CCc1ccc2[nH]cc(S(=O)(=O)c3ccc(C(C)C)cc3)c(=O)c2c1`, the inhibition is -12.2%.

Turning to `Oc1ccccc1-c1nc(-c2cccs2)c(-c2cccs2)[nH]1`, the inhibition was -5.6%.

Regarding `O=C(COc1ccccc1Cl)Nc1ccc(OCc2cc(=O)n3ccsc3n2)cc1`, the inhibition is -16.3%.

On to `N#Cc1c[nH]n2c(NC3CCCCC3)c(-c3ccc(F)cc3)nc12`, for which the inhibition is 15%.

`Cc1cccc(-n2ccnc2SCC(=O)Nc2cccc3ccccc23)c1`: the inhibition is -13.5%.

As for `CN1CCN(CCCCOc2ccccc2-c2ccccc2)CC1`, the inhibition is active: 69.9%.

Turning to `CCOc1ccc(-c2cn3c(n2)sc2cc(C(=O)NCCCN4CCCCCC4)ccc23)cc1`, the inhibition came out at 7.3%.

As to `Cc1cc(C)c2nc(N(Cc3cccnc3)C(=O)CCS(=O)(=O)c3ccccc3)sc2c1`, the inhibition is -23.1%.

On to `Cc1cc(NC(=O)C2CCN(S(=O)(=O)c3c(C)noc3C)CC2)ccc1Br`, for which the inhibition is 15.1%.

Regarding `CC1=C(C(=O)Nc2cccnc2)C(c2ccc(F)cc2)n2nc(-c3cccc(C)c3)nc2N1` (configuration not stated), the inhibition came to 14.4%.

In the case of `COc1ccccc1CNC(=O)C1(c2cccs2)CCOCC1`, the inhibition is 1.34%.

As for `COc1ccc(-c2nc3nc(C)cc(C)n3c2Nc2c(C)cccc2C)cc1`, the inhibition turned out to be 5.66%.

On to `CCc1ccccc1NC(=O)Cn1nc2c3cc(F)ccc3n(Cc3cccc(C)c3)cc-2c1=O`, for which the inhibition came to 7.12%.

For the compound `COc1ccc(NC(=O)CCc2c(C)nc3c(c2C)c(=O)n(C)c(=O)n3C)c(OC)c1`, the inhibition is -13.6%.

Regarding `O=C(COc1ccccc1F)Nc1ccc2nc(SCC(=O)N3CCc4ccccc43)sc2c1`, the inhibition came out at 8.91%.

With `CCOC(=O)c1c(NC(=O)c2cc(-c3ccccc3OC)on2)sc(C)c1C`, the inhibition was -26.1%.

Take `C/C(=N\NC(=O)c1ccc(-c2ccccc2)cc1)C1C(=O)c2ccccc2C1=O`: the inhibition was active: 84.4%.

For the compound `OCCC1CN(Cc2ccc(F)cc2)CCN1CCc1ccccc1` (configuration not stated), the inhibition was active: 42.7%.

For the compound `CSc1nc(NCCOC(C)=O)c(C#N)c(-c2ccc(C(C)(C)C)cc2)n1`, the inhibition is -1.54%.

Regarding `COc1ccc(C2C(=O)N(C3CCCCC3)CC(=O)N2CCc2ccc(C)cc2)cc1OC` (configuration not stated), the inhibition is 8.07%.

For `CC(NC(=O)c1cc(S(=O)(=O)N(C)C)ccc1Cl)C1CC2CCC1C2` (configuration not stated), the inhibition was active: 35.2%.

Turning to `Clc1ccc(OCCCCN2CCc3ccccc3C2)cc1`, the inhibition is active: 91%.

Turning to `CNC(=O)C1CCC(Cn2c(=O)c3sccc3n(Cc3cc(C)ccc3C)c2=O)CC1` (configuration not stated), the inhibition is 2.45%.

Take `COc1ccc(N2C(=O)NC(NS(=O)(=O)c3ccc(Cl)cc3)(C(F)(F)F)C2=O)cc1` (configuration not stated): the inhibition was found to be 13.8%.

Turning to `Cc1ccccc1-c1nc(CN2CCCC(C(=O)NCc3ccc(Cl)cc3)C2)c(C)o1` (configuration not stated), the inhibition worked out at 15.6%.

`CCN(C(=O)Cn1c(C(=O)OC)cc2sc(Cl)cc21)c1cccc(C)c1`: the inhibition was -4.95%.

For the compound `CCc1ccc(S(=O)(=O)c2cn(CC(=O)Nc3ccc(F)c(Cl)c3)c3ccccc3c2=O)cc1`, the inhibition is 0.671%.

As to `COc1ccc([N+](=O)[O-])cc1NC(c1nnc(-c2ccccc2)o1)c1ccccc1F` (configuration not stated), the inhibition is 0.999%.

For `COc1ccccc1C1NC(=O)c2n[nH]c(-c3cccs3)c21` (configuration not stated), the inhibition amounted to 16.4%.

Consider `CC1CCN(C(=O)c2c(NC(=O)c3ccccc3Cl)sc3c2CCC(C(C)(C)C)C3)CC1` (configuration not stated), for which the inhibition is -12.7%.

In the case of `COc1cc(C2CC(=O)N(Cc3cccc(F)c3)c3ccccc3S2)cc(OC)c1OC` (configuration not stated), the inhibition is -1.36%.

As for `COc1ccc(C2CCCN2C(=O)c2cccs2)cc1` (configuration not stated), the inhibition is active: 78.5%.

As for `Cc1cc2nc(-c3ccc(OCc4ccccc4C)cc3)cc(C(F)(F)F)n2n1`, the inhibition came to 2.93%.

Turning to `Cc1ccc(CN2C(=O)C(O)(c3c(C)[nH]c4ccccc34)c3ccccc32)cc1` (configuration not stated), the inhibition was -14.1%.

Consider `CCCOC(=O)c1cccc(Nc2nc(CCC)cc(=O)[nH]2)c1`, for which the inhibition was -11.3%.

Consider `COc1ccc(NC(=O)C2CCC(CNS(=O)(=O)c3cccc4nsnc34)CC2)cc1OC` (configuration not stated), for which the inhibition is -11.1%.

On to `COCCNC(=O)CCCn1c(SCC(=O)Nc2ccc(F)cc2)nc2c(sc3ccccc32)c1=O`, for which the inhibition was 6.87%.

For `COc1ccc(C(=O)n2nc(N)c3cc4ccc(C)cc4nc32)cc1OC`, the inhibition is -10.2%.

For `CCOC(=O)Cn1c(=N)n(Cc2ccc(C(C)(C)C)cc2)c2ccccc21`, the inhibition is -5.88%.

Regarding `COC(=O)c1cc2oc(C)cc2n1Cc1ccccc1Cl`, the inhibition was found to be 2.59%.

Regarding `Cc1nc2cc(-c3ccccc3)nn2c(C)c1CCC(=O)N1CCN(c2ccc(F)cc2)CC1`, the inhibition is 11.3%.

As to `COc1ccc(Cl)cc1NC(=O)c1c(NCc2ccc(C)o2)sc2c1CCC(C)C2` (configuration not stated), the inhibition came out at 10.5%.

As to `Cc1ccc(-c2cn3cccnc3n2)cc1NC(=O)C(C)(C)Oc1ccc(Cl)cc1`, the inhibition worked out at 9.41%.

In the case of `COc1ccc(N(C(=O)CNC(=O)c2ccco2)C(C(=O)NC2CCCCC2)c2cccnc2)cc1` (configuration not stated), the inhibition was active: 38.1%.

Regarding `C=C(C)CSc1nc2sc3c(c2c(=O)n1Cc1ccccc1)CC(C)(CC)OC3` (configuration not stated), the inhibition is -1.05%.

As to `Cc1c(C(=O)Nc2ccccc2Br)oc2ccc(S(=O)(=O)N3CCCCCC3)cc12`, the inhibition is -20.4%.

`COc1cccc(NCc2cccn2-c2nnc(N3CCC(C)CC3)s2)c1`: the inhibition is -2.19%.

Regarding `CCC(C)NC(=O)CN1C(=O)c2cccnc2Sc2ccccc21` (configuration not stated), the inhibition turned out to be 4.63%.

For `O=c1cc(-c2ccccc2)c2ccc3c(c2o1)CN(Cc1cccc(Cl)c1)CO3`, the inhibition stood at 3.49%.

On to `Cc1ccccc1NC(=O)Cn1c(=O)n(CCCC(=O)NCc2ccc3c(c2)OCO3)c(=O)c2ccccc21`, for which the inhibition came to 18.4%.

As to `CCOc1ccc(CC(=O)Nc2cccc(-c3nc4cccnc4s3)c2C)cc1`, the inhibition stood at 14.8%.

On to `COc1ccc2[nH]cc(CCN=C(NC(=O)c3ccccc3F)Nc3nc(C)cc(C)n3)c2c1`, for which the inhibition turned out to be 6.66%.

Take `CC1N=C2c3ccccc3N=C(SCC(=O)NCCc3ccc(Cl)cc3)N2C1=O` (configuration not stated): the inhibition is -3.35%.

With `CCn1c2ccccc2c2cc(CN3CCN(Cc4ccc(Br)cc4)CC3)ccc21`, the inhibition was 0.765%.

Regarding `O=C(CCS(=O)(=O)c1cc2c(cc1Cl)NC(=O)CO2)NCc1ccc(Cl)cc1`, the inhibition was 21.3%.

For the compound `O=C(Cc1ccc(Cl)cc1)NNC(=S)NC(=O)c1cccnc1`, the inhibition was active: 39.7%.

The inhibition is the drop in the measured response relative to a control, in per cent.
